Source: PubChem BioAssay (NCATS)
Several values for one entry are separate records, joined by “and”; a condition that tells them apart may be missing. Equal entries are not always repeated. This list was built around the results that the source calls inconclusive (neither active nor inactive); the mix of calls is not that of the screen. For some of these results: A potency beside an inconclusive call is a rough fit, not a confirmed value. Activity calls are given as the source filed them. Unless noted, calls follow the shape of the dose curve; as a rule, active = well fitted curve in the direction sought with a large enough effect; inconclusive = small, poorly fitted or top-dose-only effect, or another doubt; inactive = no such curve, though single readings can be large; an effect the other way counts as inactive or inconclusive. Where a SMILES comes first, the peptide text is derived from it. The star is where a group is joined. Hexanoyl = CCCCCC(=O)*

How the values were obtained:
[1] = qHTS Validation Assay to Find Inhibitors of Chronic Active B-Cell Receptor Signaling (AID 485345; active = well fitted curve in the direction sought with a large enough effect in the main read-out, with a control signal flat, not every such curve was filed as active; inconclusive = small, poorly fitted or top-dose-only effect, or effect the other way, or a change in a side signal; inactive = no such curve, though single readings can be large or run the other way;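 also: 0% = untreated basal cells and 100% = 10 µM MG-132 proteasome inhibitor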); conditions: ABC-DLBCL cells, chronic BCR signaling reporter, CBG luciferase; at 46.1 µM (top of the series)
In short: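 TMD8 ABC-DLBCL cells stably carrying doxycycline-inducible IkappaBalpha–green luciferase fusion plus unfused red luciferase; compounds 46 uM to 3 nM, 4 h at 37C with doxycycline. Corrected green/red luminescence ratio normalized to 10 uM MG-132 and basal cell wells; curves fitted.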

[2] = molecular target: ATPase family AAA domain-containing protein 5 (Homo sapiens) (UniProt Q96QE3); assay: Validation screen for small molecules that inhibit ELG1-dependent DNA repair in human embryonic kidney (HEK293T) cells expressing luciferase-tagged ELG1 (AID 493107);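 also: cells co-treated with the DNA-damaging agent 5-fluorouridine alongside compound; % is scaled to controls: 0 for no effect and ±100 for the full control effect; inhibitors lower the ELG1-luciferase luminescence signal; nearly all actives have a fitted effect of over 70% in size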
Chain of UniProt Q96QE3 (Q96QE3 whole entry, looked up, the tested form may be a part): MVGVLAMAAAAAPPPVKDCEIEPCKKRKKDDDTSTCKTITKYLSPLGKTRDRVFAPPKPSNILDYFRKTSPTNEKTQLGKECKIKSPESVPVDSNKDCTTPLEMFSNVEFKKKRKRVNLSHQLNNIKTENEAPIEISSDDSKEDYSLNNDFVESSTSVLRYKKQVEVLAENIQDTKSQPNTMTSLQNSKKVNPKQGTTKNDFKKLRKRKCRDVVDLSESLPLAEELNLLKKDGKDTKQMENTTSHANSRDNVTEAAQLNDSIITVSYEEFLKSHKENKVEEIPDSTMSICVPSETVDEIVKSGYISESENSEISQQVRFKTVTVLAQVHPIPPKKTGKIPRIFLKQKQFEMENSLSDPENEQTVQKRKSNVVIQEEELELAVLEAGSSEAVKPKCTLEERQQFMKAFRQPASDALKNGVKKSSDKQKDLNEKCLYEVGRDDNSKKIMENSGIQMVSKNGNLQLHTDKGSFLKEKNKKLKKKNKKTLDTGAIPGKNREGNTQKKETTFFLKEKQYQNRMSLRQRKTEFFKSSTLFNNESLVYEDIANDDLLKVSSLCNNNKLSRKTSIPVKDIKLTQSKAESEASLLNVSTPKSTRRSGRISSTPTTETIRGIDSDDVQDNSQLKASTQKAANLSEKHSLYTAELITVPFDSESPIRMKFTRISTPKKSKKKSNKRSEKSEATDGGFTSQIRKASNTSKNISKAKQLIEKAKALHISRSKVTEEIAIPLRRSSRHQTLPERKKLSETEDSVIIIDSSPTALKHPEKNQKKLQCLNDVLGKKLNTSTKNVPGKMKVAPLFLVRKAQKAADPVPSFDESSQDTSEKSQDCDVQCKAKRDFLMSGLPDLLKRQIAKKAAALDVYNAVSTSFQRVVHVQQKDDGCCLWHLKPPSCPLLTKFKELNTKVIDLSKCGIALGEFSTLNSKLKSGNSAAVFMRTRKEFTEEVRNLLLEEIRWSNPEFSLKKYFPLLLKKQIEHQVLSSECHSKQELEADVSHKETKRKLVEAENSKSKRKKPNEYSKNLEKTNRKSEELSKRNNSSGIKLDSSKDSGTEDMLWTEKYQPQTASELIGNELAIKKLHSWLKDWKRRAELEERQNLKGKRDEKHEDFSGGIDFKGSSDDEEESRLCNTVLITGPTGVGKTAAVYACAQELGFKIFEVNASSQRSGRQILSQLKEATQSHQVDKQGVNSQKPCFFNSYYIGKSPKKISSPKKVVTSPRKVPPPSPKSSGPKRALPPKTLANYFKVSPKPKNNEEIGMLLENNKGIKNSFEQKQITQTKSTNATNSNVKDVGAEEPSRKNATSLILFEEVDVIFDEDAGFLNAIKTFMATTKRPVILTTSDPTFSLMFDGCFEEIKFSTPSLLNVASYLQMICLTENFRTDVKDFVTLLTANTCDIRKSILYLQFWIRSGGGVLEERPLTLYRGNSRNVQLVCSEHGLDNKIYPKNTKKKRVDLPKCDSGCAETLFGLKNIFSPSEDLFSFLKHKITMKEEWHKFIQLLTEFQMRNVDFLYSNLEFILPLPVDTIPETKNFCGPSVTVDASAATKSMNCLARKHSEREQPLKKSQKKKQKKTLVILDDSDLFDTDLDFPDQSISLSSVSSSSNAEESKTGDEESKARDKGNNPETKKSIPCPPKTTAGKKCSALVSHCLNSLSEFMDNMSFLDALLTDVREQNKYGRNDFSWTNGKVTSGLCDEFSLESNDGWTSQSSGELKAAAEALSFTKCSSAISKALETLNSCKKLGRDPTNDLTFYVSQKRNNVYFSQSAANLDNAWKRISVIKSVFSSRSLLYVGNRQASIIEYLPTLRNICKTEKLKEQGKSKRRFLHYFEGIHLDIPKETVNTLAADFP
In short: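 Luminescence from ONE-Glo, developed 30 min at room temperature, served as read-out of ELG1-luciferase levels. Beforehand, reporter HEK293T cells received 5-fluorouridine plus test compound for 16 hr at 37 °C.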

[3] = molecular target: N-terminal Xaa-Pro-Lys N-methyltransferase 1 (Homo sapiens) (UniProt Q9BV86); assay: qHTS Assay for Inhibitors of N-terminal methyltransferase 1 (NTMT1): LOPAC validation of the NTMT1 SAHH-coupled ThioGlo3 Assay (AID 1347143);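 also: SAH from peptide methylation measured as thiol fluorescence via SAHH coupling and ThioGlo3; potency is read from the fitted curve at half-maximal effect; nearly all actives have a fitted effect of over 70% in size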
Chain of UniProt Q9BV86 (Q9BV86 whole entry, looked up): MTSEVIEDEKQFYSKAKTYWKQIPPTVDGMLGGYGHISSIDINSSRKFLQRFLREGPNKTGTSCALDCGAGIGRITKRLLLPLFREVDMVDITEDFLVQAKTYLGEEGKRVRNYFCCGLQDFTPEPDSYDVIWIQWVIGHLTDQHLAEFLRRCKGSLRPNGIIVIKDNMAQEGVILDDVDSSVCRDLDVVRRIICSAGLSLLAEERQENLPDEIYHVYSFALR
In short: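 Recombinant human NTMT1 (125nM) was pre-incubated 1 min at room temperature with compounds over a concentration range, then a mix of 100uM SAM, 10uM SAHH and 15uM ThioGlo3 (concentrations in added reagent) was added. ThioGlo3 fluorescence (ex 340/em 450nm) after 30 min was normalized to the initial reading.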

Papain (Carica papaya) = Papain (Carica papaya) (UniProt P00784); assay: Primary qHTS assay for inhibitors of the protease papain (AID 1645873);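 also: papain turnover of Z-FR-AMC read as the AMC fluorescence gain over 10 min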; also: potency is read from the fitted curve at half-maximal effect; as to activity change, negative = inhibition: % is scaled to controls: 0 for no effect and ±100 for the full control effect
[4] = qHTS of pediatric cancer cell lines to identify multiple opportunities for drug repurposing: Confirmatory screen for U-2 OS cells (AID 1347122); also: potency is read from the fitted curve at half-maximal effect; nearly all actives have a fitted effect of over 65% in size
In short: (§1)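 Viability after 48 h compound treatment at 37C, 500-1,000 cells/well, read as ATP luminescence with CellTiter-Glo. Primary screens used 11-point (MIPE, 0.78 nM-46 µM) or 8-point (NPC, 0.59 nM-46 µM) final concentrations; follow-up screens used 11-point dilutions.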

[5] = qHTS of pediatric cancer cell lines to identify multiple opportunities for drug repurposing: Confirmatory screen for Saos-2 cells (AID 1347127); also: nearly all actives have a fitted effect of over 60% in size; also: potency is read from the fitted curve at half-maximal effect
In short: as §1

[6] = molecular target: Androgen receptor (Homo sapiens) (UniProt P10275); assay: qHTS assay for small molecule antagonists of androgen receptor signaling (AID 588516; active = well fitted curve in the direction sought with a large enough effect in the signal ratio, with a control signal flat, not every such curve was filed as active; inconclusive = small, poorly fitted or top-dose-only effect, or effect the other way, or a change in a side signal; inactive = no such curve, though single readings can be large or run the other way; the % refers to the signal ratio; also: % is scaled to controls: 0 for no effect and ±100 for the full control effect); conditions: AR-UAS-bla HEK293, beta-lactamase ratio, antagonist mode, 16 h; activity change, negative = inhibition: at 76.8 µM (top of the series)
Chain of UniProt P10275 (P10275 whole entry, looked up): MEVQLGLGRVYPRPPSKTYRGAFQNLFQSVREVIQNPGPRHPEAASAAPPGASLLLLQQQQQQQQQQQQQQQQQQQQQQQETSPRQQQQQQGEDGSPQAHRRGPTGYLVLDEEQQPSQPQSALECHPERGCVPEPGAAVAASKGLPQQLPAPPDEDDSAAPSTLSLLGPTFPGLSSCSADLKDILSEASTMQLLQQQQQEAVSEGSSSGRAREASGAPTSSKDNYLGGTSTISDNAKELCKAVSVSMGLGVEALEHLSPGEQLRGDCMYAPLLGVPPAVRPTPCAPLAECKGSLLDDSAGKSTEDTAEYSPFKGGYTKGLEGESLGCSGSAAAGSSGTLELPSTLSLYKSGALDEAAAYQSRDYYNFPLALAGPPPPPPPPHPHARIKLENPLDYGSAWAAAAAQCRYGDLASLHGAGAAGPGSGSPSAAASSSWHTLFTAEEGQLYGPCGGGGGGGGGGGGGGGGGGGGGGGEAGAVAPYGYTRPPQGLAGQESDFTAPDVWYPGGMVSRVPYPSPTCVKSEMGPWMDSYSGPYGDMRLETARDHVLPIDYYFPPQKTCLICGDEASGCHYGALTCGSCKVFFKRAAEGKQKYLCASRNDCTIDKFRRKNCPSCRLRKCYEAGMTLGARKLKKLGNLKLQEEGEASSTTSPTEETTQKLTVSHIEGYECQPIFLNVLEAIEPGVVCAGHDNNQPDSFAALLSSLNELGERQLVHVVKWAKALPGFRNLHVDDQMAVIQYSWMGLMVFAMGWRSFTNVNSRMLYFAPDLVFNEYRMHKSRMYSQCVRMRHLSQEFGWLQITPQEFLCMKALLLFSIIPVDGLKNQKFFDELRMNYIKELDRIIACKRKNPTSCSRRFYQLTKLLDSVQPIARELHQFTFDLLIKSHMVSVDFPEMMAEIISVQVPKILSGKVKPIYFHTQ
In short: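 Antagonist mode: inhibition of R1881-stimulated (10 nM final) bla reporter in GeneBLAzer AR HEK 293 cells, 16 h at 37C, compounds titrated. IC50 and efficacy from Hill-equation fits of 405/460–530 nm FRET ratios.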

CP265 = assay: qHTS profiling for inhibitors of Plasmodium falciparum proliferation (AID 504749); also: nearly all actives have a fitted effect of over 60% in size; also: potency is read from the fitted curve at half-maximal effect;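 as to activity, negative = inhibition: 0% = DMSO vehicle and full inhibition = artemisinin control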; conditions: P. falciparum in erythrocytes, SYBR Green DNA, 72 h; series mostly up to 28.7 µM
In short: (§2)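 P. falciparum-infected erythrocytes (0.3% parasitemia, 2.5% hematocrit) incubated with compound 72 h at 37 C, 5% CO2. Parasite DNA detected by SYBR Green after lysis, overnight at room temperature; normalised to 0.29 uM artemisinin and DMSO.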

[7] = system: Zika virus NS2B-NS3 protease (unlinked complex); assay: Confirmatory screen GU AMC qHTS for Zika virus inhibitors (AID 1347153);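 also: enzyme at 25 nM with substrate at 10 µM below its Km of 18.3 µM; potency is read from the fitted curve at half-maximal effect; nearly all actives have a fitted effect of over 70% in size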
In short: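 Fluorescence change (ex 340/em 450 nm) over 15 min, ~20% substrate conversion, normalized to no-inhibitor and no-enzyme controls, then Hill-fitted. Unlinked protease at 25 nM; AMC peptide 10 µM.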

[8] = Confirmatory screen NINDS Rhodamine qHTS for Zika virus inhibitors (AID 1347161)
In short: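 Purified NS2B-NS3 protease with the NS2B hydrophilic domain joined by a flexible linker (25 nM) in 10 mM Tris-HCl pH 8.0, 0.01% Tween 20, preincubated 15 min at RT with compound; Rhodamine110 peptide substrate 1.5 µM; fluorescence change over 15 min; 4-parameter Hill fit.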

[9] = molecular target: Cytochrome P450 1A2 (Homo sapiens) (UniProt P05177); assay: qHTS for inhibitors of CYPIA2 against the NCATS DSHEA and TCM libraries (AID 1919976); also: potency is read from the fitted curve at half-maximal effect
Chain of UniProt P05177 (P05177 whole entry, looked up): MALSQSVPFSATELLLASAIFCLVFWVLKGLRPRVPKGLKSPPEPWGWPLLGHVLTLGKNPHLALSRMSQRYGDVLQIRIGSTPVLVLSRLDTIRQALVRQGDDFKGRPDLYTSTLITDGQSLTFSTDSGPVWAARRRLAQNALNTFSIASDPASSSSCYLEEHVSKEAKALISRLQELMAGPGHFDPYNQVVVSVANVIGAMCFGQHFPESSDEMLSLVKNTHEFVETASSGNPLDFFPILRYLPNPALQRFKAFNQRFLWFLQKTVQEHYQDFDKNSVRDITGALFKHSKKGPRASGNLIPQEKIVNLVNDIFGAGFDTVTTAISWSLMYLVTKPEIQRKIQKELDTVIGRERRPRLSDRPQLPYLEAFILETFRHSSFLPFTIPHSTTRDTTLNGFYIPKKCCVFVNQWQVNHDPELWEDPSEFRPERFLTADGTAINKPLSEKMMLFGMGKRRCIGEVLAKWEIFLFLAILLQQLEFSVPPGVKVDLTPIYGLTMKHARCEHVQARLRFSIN
In short: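 CYP1A2 + luciferin substrate, 100 mM KPO4-type buffer; cmpd 15 min RT; 1x NADPH regen, 30-45 min RT dark; detection reagent 30 min RT; luminescence. Minus-enzyme wells as background; furafylline intraplate control.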

[10] = ZIKV-mCherry secondary qHTS for Zika virus inhibitors (AID 1347158); also: potency is read from the fitted curve at half-maximal effect
In short: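 Vero, 5,000 cells/well, o/n 37 °C; cpd pin-transferred in DMSO; ZIKV-mCherry MOI 1, 48-72 h 37 °C; 32% PFA stock fix, Hoechst; imaged 10x DAPI/mCherry; mCherry+ threshold 450 RFU; % infection.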

[11] = molecular target: Glutathione peroxidase 1 (Homo sapiens) (UniProt P07203); assay: Primary qHTS Assay for Inhibitors of Recombinant Selenoprotein Glutathione Peroxidase 1 (GPX1) (AID 1845191); conditions: activity, negative = inhibition: at 48.8 µM (top of the series); also: nearly all actives have a fitted effect of over 65% in size; also: potency is read from the fitted curve at half-maximal effect; as to activity, negative = inhibition: % is scaled to controls: 0 for no effect and ±100 for the full control effect
Chain of UniProt P07203 (P07203 whole entry, looked up): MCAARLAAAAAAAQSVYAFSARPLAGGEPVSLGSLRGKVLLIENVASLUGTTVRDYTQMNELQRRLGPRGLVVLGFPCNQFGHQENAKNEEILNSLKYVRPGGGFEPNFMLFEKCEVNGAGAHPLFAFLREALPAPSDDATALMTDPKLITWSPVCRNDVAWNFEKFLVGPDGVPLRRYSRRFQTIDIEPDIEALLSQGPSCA
In short: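 GR-coupled assay: compounds preincubated 30 min at room temperature with GPX1, then reaction started with CHP; final 10 nM GPX1, 1 mM GSH, 0.5 mM CHP, 0.5 mM NADPH, 100 nM GR, 0.01% BSA, pH 7.5 Tris buffer. NADPH fluorescence (340/450 nm) read at 0 and 15 min.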

[12] = molecular target: Cytochrome P450 1A2 (Homo sapiens) (UniProt P05177); assay: p450-cyp1a2 (AID 410; calls by dose curve; also: potency is read from the fitted curve at half-maximal effect;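 as to activity change, negative = inhibition: top concentration of the series differs between compounds; -100% = full effect of reference inhibitor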)
In short: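 Luminescent readout of luciferin formed from Luciferin-ME by human CYP1A2; data normalized against complete inhibition by 57 uM furafylline. Enzyme 20nM, substrate 100uM at Km, 100mM KPO4 buffer, 60 min reaction at room temperature.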

[13] = molecular target: 3',5'-cyclic-AMP phosphodiesterase 4B (Homo sapiens) (UniProt Q07343); assay: qHTS Assay for Inhibitors of PDE-IV (AID 607; active = well fitted activation curve with a large enough effect in the main read-out, with a control signal flat, not every such curve was filed as active; inconclusive = small, poorly fitted or top-dose-only effect, or effect the other way, or a change in a side signal; also: potency is read from the fitted curve at half-maximal effect); conditions: HEK293 ACTOne CNG channel cells, membrane potential fluorescence; activation (PDE inhibition): at 22.9 µM (top of the series)
In short: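 The readout is membrane depolarisation from a cAMP-sensing CNG channel, detected with a potential dye at ex 535/em 590. Cells were HEK293-derived (endogenous PDE-IV) at 1000 cells/well, titrated up to 22.9 uM final.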

[14] = molecular target: Cytochrome P450 3A4 (Homo sapiens) (UniProt P08684); assay: qHTS Assay for Inhibitors and Substrates of Cytochrome P450 3A4 (AID 884); also: % is scaled to controls: 0 for no effect and ±100 for the full control effect; nearly all actives have a fitted effect of over 50% in size
Chain of UniProt P08684 (P08684 whole entry, looked up): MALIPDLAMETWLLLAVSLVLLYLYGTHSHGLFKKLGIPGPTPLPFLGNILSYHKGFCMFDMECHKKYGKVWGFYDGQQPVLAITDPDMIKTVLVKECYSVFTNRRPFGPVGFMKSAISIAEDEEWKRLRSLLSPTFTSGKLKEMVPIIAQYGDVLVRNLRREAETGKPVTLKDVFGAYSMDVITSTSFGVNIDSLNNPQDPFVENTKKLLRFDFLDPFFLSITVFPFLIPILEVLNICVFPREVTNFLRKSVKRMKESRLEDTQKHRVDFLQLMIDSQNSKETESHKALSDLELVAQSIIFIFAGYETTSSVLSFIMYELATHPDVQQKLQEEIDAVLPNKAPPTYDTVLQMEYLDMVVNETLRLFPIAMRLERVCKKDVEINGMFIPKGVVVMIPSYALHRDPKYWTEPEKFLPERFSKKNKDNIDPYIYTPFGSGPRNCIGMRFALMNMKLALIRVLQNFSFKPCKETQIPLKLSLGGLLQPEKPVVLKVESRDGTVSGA
In short: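 20 nM human CYP3A4 with 25 uM Luciferin-PPXE (at KM) in 200 mM KPO4, preincubated 10 min with compound; NADPH regeneration started a 60 min RT reaction. Luciferin detected by luminescence, normalized to 57 uM ketoconazole as full inhibition.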

CP201 = assay: qHTS profiling for inhibitors of Plasmodium falciparum proliferation (AID 504749); also: nearly all actives have a fitted effect of over 60% in size; also: potency is read from the fitted curve at half-maximal effect;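 as to activity, negative = inhibition: 0% = DMSO vehicle and full inhibition = artemisinin control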; conditions: P. falciparum in erythrocytes, SYBR Green DNA, 72 h; series mostly up to 28.7 µM
In short: as §2

[15] = molecular target: Estrogen receptor (Homo sapiens) (UniProt P03372); assay: qHTS assay for small molecule antagonists of estrogen receptor alpha signaling (AID 588513; active = well fitted curve in the direction sought with a large enough effect in the signal ratio, with a control signal flat, not every such curve was filed as active; inconclusive = small, poorly fitted or top-dose-only effect, or effect the other way, or a change in a side signal; inactive = no such curve, though single readings can be large or run the other way; the % refers to the signal ratio; also: % is scaled to controls: 0 for no effect and ±100 for the full control effect); conditions: ER-alpha-UAS-bla HEK293, beta-lactamase ratio, antagonist mode; activity, negative = inhibition: at 76.9 µM (top of the series)
Chain of UniProt P03372 (P03372 whole entry, looked up): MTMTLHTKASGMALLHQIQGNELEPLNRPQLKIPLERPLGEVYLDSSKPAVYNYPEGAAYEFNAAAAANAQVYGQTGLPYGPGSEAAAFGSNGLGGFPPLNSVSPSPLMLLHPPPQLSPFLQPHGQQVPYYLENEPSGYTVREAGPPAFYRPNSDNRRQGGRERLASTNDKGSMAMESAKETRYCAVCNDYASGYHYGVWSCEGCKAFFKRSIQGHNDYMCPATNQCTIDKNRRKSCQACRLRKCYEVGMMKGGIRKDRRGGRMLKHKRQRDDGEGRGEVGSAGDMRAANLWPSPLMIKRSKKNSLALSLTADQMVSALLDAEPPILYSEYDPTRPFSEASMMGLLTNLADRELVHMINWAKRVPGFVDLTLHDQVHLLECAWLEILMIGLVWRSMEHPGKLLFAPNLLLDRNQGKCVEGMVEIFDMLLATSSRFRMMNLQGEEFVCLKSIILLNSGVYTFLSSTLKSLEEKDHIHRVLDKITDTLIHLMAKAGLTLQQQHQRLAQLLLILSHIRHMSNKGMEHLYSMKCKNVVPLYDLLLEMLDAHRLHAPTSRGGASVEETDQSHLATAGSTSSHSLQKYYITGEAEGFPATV
In short: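 Antagonist mode: inhibition of 0.5 nM 17-beta-estradiol-driven beta-lactamase reporter in HEK 293 ER-alpha-UAS-bla cells, 18 h at 37C, CCF4 readout after 2 h at RT. Normalised to estradiol and DMSO; titration fitted to Hill.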

C2A = assay: qHTS profiling for inhibitors of Plasmodium falciparum proliferation (AID 504749); also: nearly all actives have a fitted effect of over 60% in size; also: potency is read from the fitted curve at half-maximal effect;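 as to activity, negative = inhibition: 0% = DMSO vehicle and full inhibition = artemisinin control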; conditions: P. falciparum in erythrocytes, SYBR Green DNA, 72 h; series mostly up to 28.7 µM
In short: as §2

CP247 = assay: as above; conditions: P. falciparum in erythrocytes, SYBR Green DNA, 72 h; series mostly up to 28.7 µM
In short: as §2
Tags tell the direction and shape of the fitted curve.

## CN/C(=C\[N+](=O)[O-])NCCSCc1ccc(CN(C)C)o1
[1]
  activity change: inactive: -2.81%
[2]
  Potency: inactive
[3]
  Potency: inconclusive: 50.1 µM [inhibitor, partial curve]
Papain (Carica papaya)
  Potency: inconclusive: 20 µM [inhibitor, single point]

## CN(C)CCN(Cc1ccsc1)c1ccccn1
[4]
  Potency: inconclusive: 36.9 µM [cytotoxic, single point]
[5]
  Potency: inactive

## CC(O)COc1ccccc1 (stereo not given)
[6]
  Potency: inactive
CP265
  Potency: inactive

## CCS(=O)(=O)c1cccc(-c2cc(C(=O)NC3CCN(C)CC3)c(C)c3[nH]c4ncc(C)cc4c23)c1
[7]
  Potency: active: 24.1 µM
[8]
  Potency: inactive

## CC(C)=CCC(O)/C(C)=C/CO[C@@H]1O[C@H](CO)[C@@H](O)[C@H](O)[C@H]1O (stereo not given in full)
[9]
  Potency: active: 3.55 µM

## CC1(C)CCC(C)(C)c2cc(C3(c4ccc(C(=O)O)cc4)OCCO3)ccc21
[10]
  Potency: inconclusive: 28.2 µM [inhibitor, partial curve]

## Cc1nc([C@](C)(O)CO)sc1-c1cnc(N)c(O[C@H](C)c2cc(F)ccc2-n2nccn2)c1
[11]
  Potency: inconclusive: 25.5 µM [inhibitor, partial curve]

## O=c1cc(CO)occ1O
[12]
  Potency: inactive
[13]
  Potency: inconclusive: 19 µM [inhibitor, single point]
[14]
  Potency: inactive

## CC[C@H](c1ccc(O)cc1)[C@@H](CC)c1ccc(O)cc1
CP201
  Potency: inactive

## C/C=C/c1ccc(O)c(OC)c1
[15]
  Potency: inactive

## CO[C@]12C[C@@H](COC(=O)c3cncc(Br)c3)CN(C)[C@@H]1Cc1cn(C)c3cccc2c13
C2A
  Potency: inconclusive: 10 µM [inhibitor, single point]
CP247
  Potency: inconclusive: 14.1 µM [inhibitor, single point]

## O=C1c2ccccc2C(=O)C1c1ccc(Br)cc1
CP265
  Potency: inconclusive: 11.2 µM [inhibitor, single point]

## CC(=O)Nc1ccc(S(=O)(=O)Nc2ccc([N+](=O)[O-])cc2)cc1
C2A
  Potency: inactive

## CN(C)CCC=C1c2ccccc2CCc2ccccc21
[12]
  Potency: inconclusive: 15.8 µM [decreasing] and active: 15.8 µM
[13]
  Potency: inconclusive: 9.51 µM [activator, partial curve]
[2]
  Potency: inactive

## CC(=O)N[C@@H](CS)C(=O)O
[15]
  activity, negative = inhibition: inconclusive: 26.6%

## C[C@H]1COc2c(C3(N)CC3)c(F)cc3c(=O)c(C(=O)O)cn1c23
CP247
  Potency: inconclusive: 3.98 µM [inhibitor, single point]

## Brc1ccccc1-c1ccccc1
[14]
  Potency: inactive

## O=C1c2c(O)cccc2[C@@H]([C@@H]2O[C@H](CO)[C@@H](O)[C@H](O)[C@H]2O)c2cc(CO)cc(O)c21
[4]
  Potency: inconclusive: 0.0074 µM [cytotoxic, full curve]
[9]
  Potency: inconclusive: 25.1 µM [inhibitor, single point]

## CN[C@H]1[C@@H](O)[C@@H]2O[C@@H]3O[C@H](C)CC(=O)[C@]3(O)O[C@@H]2[C@@H](NC)[C@H]1O
[5]
  Potency: inconclusive: 10.4 µM [rising, full curve]

## CCNC(=O)N1CCN(CCCC(c2ccc(F)cc2)c2ccc(F)cc2)CC1
CP201
  Potency: active: 7.57 µM

## O=C(O)COCCN1CCN(C(c2ccccc2)c2ccc(Cl)cc2)CC1 (stereo not given)
[1]
  activity change: inactive: -11.1%
[3]
  Potency: inconclusive: 56.2 µM [inhibitor, partial curve]
Papain (Carica papaya)
  Potency: inactive

## O=C(O)[C@H](CC(=O)N1C[C@H]2CCCC[C@H]2C1)Cc1ccccc1
[11]
  Potency: inactive

## N#CC1C(=O)Nc2scc(-c3ccc(-c4ccccc4O)cc3)c2C1=O (stereo not given)
[7]
  Potency: inconclusive: 17.5 µM [inhibitor, full curve]
[10]
  Potency: inconclusive: 10 µM [inhibitor, full curve]

## COc1cc(C=O)ccc1O
[6]
  Potency: inactive

## CCCCCC(=O)N1CCC[C@H]1C(=O)N[C@@H](Cc1ccc(O)cc1)C(=O)OC (Hexanoyl-Pro-Tyr-OMe)
[8]
  Potency: inactive
